Experimental data: patent publication EP0415470A2 (CAMPINA MELKUNIE B.V., priority 1989, dated 1991)
Part of at least one peptide drawing is inferred or uncertain, most often the ends. Where a SMILES comes first, the peptide text is derived from it.

Target: T1, aminopeptidase of L. lactis subsp. cremoris Wg2 (Lactococcus lactis subsp. cremoris, UniProt P0C2T8)
T1 sequence (P0C2T8 1-846): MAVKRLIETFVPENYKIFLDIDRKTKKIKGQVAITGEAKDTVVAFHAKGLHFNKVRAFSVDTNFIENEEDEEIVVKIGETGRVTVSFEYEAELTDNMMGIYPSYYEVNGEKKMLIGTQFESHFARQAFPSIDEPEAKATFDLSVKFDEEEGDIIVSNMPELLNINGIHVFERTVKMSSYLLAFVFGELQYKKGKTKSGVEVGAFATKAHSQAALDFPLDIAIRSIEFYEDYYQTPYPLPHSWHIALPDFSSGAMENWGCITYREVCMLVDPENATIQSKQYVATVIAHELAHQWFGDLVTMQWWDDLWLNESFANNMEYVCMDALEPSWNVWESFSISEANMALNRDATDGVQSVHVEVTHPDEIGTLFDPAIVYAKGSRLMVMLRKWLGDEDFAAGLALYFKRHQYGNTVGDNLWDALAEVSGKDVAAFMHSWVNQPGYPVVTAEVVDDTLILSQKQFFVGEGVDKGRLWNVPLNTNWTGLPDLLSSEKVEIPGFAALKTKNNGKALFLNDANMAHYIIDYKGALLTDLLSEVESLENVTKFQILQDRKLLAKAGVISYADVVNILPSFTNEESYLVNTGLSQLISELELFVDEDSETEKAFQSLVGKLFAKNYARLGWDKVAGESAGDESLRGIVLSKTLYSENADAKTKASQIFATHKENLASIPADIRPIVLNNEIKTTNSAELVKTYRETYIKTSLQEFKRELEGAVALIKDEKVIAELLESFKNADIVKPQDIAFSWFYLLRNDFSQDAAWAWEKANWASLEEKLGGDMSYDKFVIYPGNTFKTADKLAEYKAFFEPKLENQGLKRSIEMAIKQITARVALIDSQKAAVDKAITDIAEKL
Assay: Hydrolysis of peptides detected by thin-layer chromatography (TLC)
Type: biochemical
Set-up: The cell extract obtained after sonication and centrifugation of L. lactis subsp. cremoris Wg2; endogenous in cells; host or cells: Proteinase-negative variant of Lactococcus lactis subsp. cremoris Wg2; Enzyme purified from the cell-free extract by DEAE-Sephacel, phenyl-Sepharose, Sephadex G-100 SF and MA7P HPLC; not recombinant; key to Activity: + : hydrolysis; - : no hydrolysis to be observed
Details: for Activity: substrate specificity, 2 mM substrate, 20 mM HEPES pH 7, 60 min. at 30°C, TLC; for hydrolysis of peptides (in words): peptide as substrate of the aminopeptidase

Structure (SMILES)	Activity	hydrolysis of peptides (in words)	hydrolysis of peptides (in words) (listed as met-enkephalin)
CC(C)C[C@H](NC(=O)CNC(=O)CN)C(=O)O	-		
C[C@H](N)C(=O)N[C@@H](Cc1c[nH]cn1)C(=O)N[C@@H](C)C(=O)O [Ala-His-Ala] (H-Ala-His-Ala-OH)	+	hydrolyses	
C[C@H](N)C(=O)N1CCC[C@H]1C(=O)N[C@@H](C)C(=O)O [Ala-Pro-Ala] (H-Ala-Pro-Ala-OH)	+	hydrolyses	
C[C@H](N)C(=O)N1CCC[C@H]1C(=O)N[C@@H](Cc1ccccc1)C(=O)O [Ala-Pro-Phe] (H-Ala-Pro-Phe-OH)	+	hydrolyses	
CC(C)C[C@H](NC(=O)[C@@H](NC(=O)[C@H](C)N)C(C)C)C(=O)O [Ala-Val-Leu] (H-Ala-Val-Leu-OH)	+	hydrolyses	
C[C@H](N)C(=O)N[C@@H](C)C(=O)N[C@@H](C)C(=O)N[C@@H](C)C(=O)O [Ala₄, ala-ala-ala-ala] (H-AAAA-OH)	+	hydrolyses	
C[C@H](N)C(=O)N[C@@H](C)C(=O)N[C@@H](C)C(=O)N[C@@H](C)C(=O)N[C@@H](C)C(=O)O [Ala₅, ala-ala-ala-ala-ala]	+	hydrolyses	
C[C@H](N)C(=O)N[C@@H](C)C(=O)N[C@@H](C)C(=O)N[C@@H](C)C(=O)N[C@@H](C)C(=O)N[C@@H](C)C(=O)O [Ala₆, ala-ala-ala-ala-ala-ala]	+		
C[C@H](NC(=O)[C@@H](N)CCC(=O)O)C(=O)O [Glu-Ala] (H-Glu-Ala-OH)	+	hydrolyses	
CC(C)[C@H](NC(=O)[C@@H](N)CCC(=O)O)C(=O)N[C@@H](Cc1ccccc1)C(=O)O [Glu-Val-Phe] (H-Glu-Val-Phe-OH)	-		
CC(C)[C@H](NC(=O)[C@@H](N)CCC(=O)O)C(=O)O [Glu-Val] (H-Glu-Val-OH)	-		
NCC(=O)NCC(=O)NCC(=O)O [Gly-Gly-Gly] (H-Gly-Gly-Gly-OH)	-		
CC(C)C[C@H](NC(=O)CN)C(=O)N[C@@H](Cc1ccc(O)cc1)C(=O)O [Gly-Leu-Tyr] (H-Gly-Leu-Tyr-OH)	+		
CC(C)C[C@H](NC(=O)[C@H](Cc1ccccc1)NC(=O)CN)C(=O)O [Gly-Phe-Leu] (H-Gly-Phe-Leu-OH)	+		
NCC(=O)N1CCC[C@H]1C(=O)NCC(=O)NCC(=O)O [Gly-Pro-Gly-Gly] (H-GPGG-OH)	-		
C[C@H](NC(=O)[C@H](CO)NC(=O)CN)C(=O)O [Gly-Ser-Ala] (H-Gly-Ser-Ala-OH)	-		
CC[C@H](C)[C@H](N)C(=O)N[C@@H](C)C(=O)O [Ile-Ala] (H-Ile-Ala-OH)	+	hydrolyses	
CC(C)C[C@H](N)C(=O)NCC(=O)NCC(=O)O [Leu-Gly-Gly] (H-Leu-Gly-Gly-OH)	+	hydrolyses	
CC(C)C[C@H](N)C(=O)NCC(=O)O [Leu-Gly] (H-Leu-Gly-OH)	+	hydrolyses	
CC(C)C[C@H](NC(=O)[C@H](CC(C)C)NC(=O)[C@@H](N)CC(C)C)C(=O)O [Leu-Leu-Leu] (H-Leu-Leu-Leu-OH)	+	hydrolyses	
CSCC[C@H](NC(=O)[C@H](Cc1ccccc1)NC(=O)CNC(=O)CNC(=O)[C@@H](N)Cc1ccc(O)cc1)C(=O)O [Met-enkaphalin]	+	can also act on	hydrolyses
N[C@@H](Cc1ccccc1)C(=O)NCC(=O)NCC(=O)O [Phe-Gly-Gly] (H-Phe-Gly-Gly-OH)	-		
O=C(O)CNC(=O)CNC(=O)[C@@H]1CCCN1 [Pro-Gly-Gly] (H-Pro-Gly-Gly-OH)	-		
CSCC[C@H](NC(=O)[C@@H]1CCCN1)C(=O)O [Pro-Met] (H-Pro-Met-OH)	-		
CSCC[C@H](NC(=O)[C@H](CC(C)C)NC(=O)CNC(=O)[C@H](Cc1ccccc1)NC(=O)[C@H](Cc1ccccc1)NC(=O)[C@H](CCC(N)=O)NC(=O)[C@H](CCC(N)=O)NC(=O)[C@@H]1CCCN1C(=O)[C@H](CCCCN)NC(=O)[C@@H]1CCCN1C(=O)[C@@H](N)CCCNC(=N)N)C(N)=O [Substance P]	+		
